From the supplement of paper PMC10126150
Sequences with one replicate were seen in a single cluster, so their values are uncertain.

System: ATP
Assay: switch fluorescence ratio, 500 uM ATP over buffer (Cy3 cluster intensity, sum of 5 cycles each) (fold (ratio)); higher = stronger signal-on switching upon ATP binding; sequences stand for … in TCGTCGGCAGCGTCAGATGTGTATAAGAGACAGTTTTTTTTTTTTTTTTTTTTTTTTT…TC
Settings: aptamer strand: ATP DNA aptamer (quencher-CACCTGGGGGAGTATTGCGGAGGAAGG + anchor), 100 nM annealed; ATP concentration: 500 uM; one replicate
In short: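 Cy3-labelled switching-strand clusters on a modified Illumina MiSeq flow-cell were annealed to 100 nM quencher-labelled ATP aptamer and imaged first in selection buffer, then after 15 min with 500 uM ATP at 22 °C. NaOH stripping and re-annealing separated each of five buffer/ATP cycles, and clusters outside 100-1000 RFU were excluded. The fluorescence ratio sums target-cycle Cy3 intensity over buffer-cycle Cy3 intensity per cluster and averages it per switch-domain sequence.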
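Also: ATP exposure 15 min at 22 °C before imaging.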

GAGGACTGG
switch fluorescence ratio: 0.973

TCGGGTCCCG
switch fluorescence ratio: 0.969

CTTAGTACTG
switch fluorescence ratio: 1.06

AAATGTACGT
switch fluorescence ratio: 1.01

GGAAACGT
switch fluorescence ratio: 1.09

GCATAAGGTC
switch fluorescence ratio: 1.03

TCCTTGTGAT
switch fluorescence ratio: 1.05

TAGAACTA
switch fluorescence ratio: 0.989

CGTAGCCCCG
switch fluorescence ratio: 0.917

GGGTTCTTGG
switch fluorescence ratio: 0.955

ATCTTCAAAG
switch fluorescence ratio: 0.977

CCTTGGGCTA
switch fluorescence ratio: 6.07

ATTAATCTGT
switch fluorescence ratio: 1

CGTCCCCGTA
switch fluorescence ratio: 1.18

TATGTTGCTC
switch fluorescence ratio: 1.02

AACATGAGGG
switch fluorescence ratio: 0.998

GCCCGATCTG
switch fluorescence ratio: 1.04

ACTGACTCGT
switch fluorescence ratio: 1.13

GGGGTTGATC
switch fluorescence ratio: 0.975

TGAACTTATA
switch fluorescence ratio: 1.01

CATTTGGCTG
switch fluorescence ratio: 1.03

TGTGCAGGCG
switch fluorescence ratio: 1.03

TAATACAGTT
switch fluorescence ratio: 0.986

GGGCTACGCG
switch fluorescence ratio: 1.02

ACATGAGGGC
switch fluorescence ratio: 1.1

GGACGTTTAC
switch fluorescence ratio: 1.33

TGGCCGAACT
switch fluorescence ratio: 1.04

ACAGATCTGG
switch fluorescence ratio: 1.02

TTGGCTGCTG
switch fluorescence ratio: 0.974

TGTCGTATTT
switch fluorescence ratio: 1.01

AAACGAAAG
switch fluorescence ratio: 1.03

GCTGATTGTT
switch fluorescence ratio: 0.986

TTTATTGAGA
switch fluorescence ratio: 1.02

CCATCTGGAC
switch fluorescence ratio: 1.04

GCCGCTCCGC
switch fluorescence ratio: 1.62

AGAAGGAG
switch fluorescence ratio: 1

CGCAATTAG
switch fluorescence ratio: 6.73

AAGGATCCAT
switch fluorescence ratio: 0.984

TATGCTCTAC
switch fluorescence ratio: 1.15

TAAGGCTTGC
switch fluorescence ratio: 1.03

GGCTGTAGGG
switch fluorescence ratio: 1.03

TGCGGTTGCG
switch fluorescence ratio: 1.02

CGAAGTGAAT
switch fluorescence ratio: 1.06

ACCCGCTAGA
switch fluorescence ratio: 1.62

AAAGTTTTAG
switch fluorescence ratio: 1.03

AGCATAATCT
switch fluorescence ratio: 1.11

GGGTGTGCCC
switch fluorescence ratio: 0.973

CCCAGCCATC
switch fluorescence ratio: 2.27

GGGCTGCG
switch fluorescence ratio: 1

CAAATATCAA
switch fluorescence ratio: 1.04

GAGAGAAACG
switch fluorescence ratio: 0.907

CTTGGGGTCG
switch fluorescence ratio: 1.01

ATAATGGTTC
switch fluorescence ratio: 0.949

TATCGTGTTC
switch fluorescence ratio: 0.977

AAGTCACCAA
switch fluorescence ratio: 1.13

ATATCGAAAA
switch fluorescence ratio: 0.974

TATACCGGGT
switch fluorescence ratio: 0.997

GGTGGACGCG
switch fluorescence ratio: 1

GGAAGTGTGA
switch fluorescence ratio: 1.04

CGTGGGTGCC
switch fluorescence ratio: 0.995

TCGCGACACG
switch fluorescence ratio: 1.08

ATTGTTTCTG
switch fluorescence ratio: 0.963

GTATTGGGGA
switch fluorescence ratio: 1.01

GAATCGTGTA
switch fluorescence ratio: 0.96

GATACCGACA
switch fluorescence ratio: 1.19

CATTACCGTT
switch fluorescence ratio: 1.02

TATGGTGCTG
switch fluorescence ratio: 1.01

GACAATTGGC
switch fluorescence ratio: 0.968

AGGCAGGTAG
switch fluorescence ratio: 1.01

CGAAGAAAAC
switch fluorescence ratio: 1.05

TATAATTACG
switch fluorescence ratio: 1.01

AGTCCAAATA
switch fluorescence ratio: 0.998

TTAAAAGTAC
switch fluorescence ratio: 1.1

GCTTGGTAGG
switch fluorescence ratio: 0.991

GATGCCCGT
switch fluorescence ratio: 1.01

TGATGGTTTT
switch fluorescence ratio: 0.96

ATTTTCATCG
switch fluorescence ratio: 1.03

CAAGAAAACC
switch fluorescence ratio: 1.05

GGCGGCTGGT
switch fluorescence ratio: 0.832

TAACTATCGG
switch fluorescence ratio: 0.967

CGCGTCCCCT
switch fluorescence ratio: 1.37

CCAAGGTTAT
switch fluorescence ratio: 1.01

CTGAGATGGT
switch fluorescence ratio: 1

CCTGACGTAC
switch fluorescence ratio: 2.41

TGGTGTCCCC
switch fluorescence ratio: 1.05

AATACGGCCA
switch fluorescence ratio: 1.06

ACGCAGTCC
switch fluorescence ratio: 1.47

ATACGAGACC
switch fluorescence ratio: 1.22

GACGACTCGT
switch fluorescence ratio: 1

GGATGGAGGA
switch fluorescence ratio: 0.944

AGTGCCGTAG
switch fluorescence ratio: 0.967

TTACGAGCTG
switch fluorescence ratio: 1.06

GGGGCTCCCG
switch fluorescence ratio: 0.974

TGATGGAGTT
switch fluorescence ratio: 0.971

GCCTACTCCC
switch fluorescence ratio: 1.05

TTTGCCGCAT
switch fluorescence ratio: 1.15

TGTTTTTCGG
switch fluorescence ratio: 0.984

TGGGCGTC
switch fluorescence ratio: 1.02

TCACGACTGT
switch fluorescence ratio: 1.01

CTGTTCATGC
switch fluorescence ratio: 0.993

ATTCATCCT
switch fluorescence ratio: 1.15

TAACACGGGC
switch fluorescence ratio: 1.02

CCATGCTGAA
switch fluorescence ratio: 0.974

CGTGAATGCG
switch fluorescence ratio: 0.993

CCATAAATTA
switch fluorescence ratio: 1.01

TTCCTGTAGT
switch fluorescence ratio: 0.993

ATTCACTGGT
switch fluorescence ratio: 1

AATGCTCCCG
switch fluorescence ratio: 1.58

CCTCTGATAG
switch fluorescence ratio: 4.3

ATGTCTACGC
switch fluorescence ratio: 1.13

TCAGAGGGC
switch fluorescence ratio: 1.07

GGGAGAGTCT
switch fluorescence ratio: 1.02

TAGGCTGCTA
switch fluorescence ratio: 1.08

TTTCCCCTAC
switch fluorescence ratio: 1.07

CGAGAGGCGC
switch fluorescence ratio: 1.04

TGATGGTGAC
switch fluorescence ratio: 1.08

GAGTTTTAAC
switch fluorescence ratio: 0.989

ACACTGCATT
switch fluorescence ratio: 1.16

TTGCCATGGA
switch fluorescence ratio: 1.01

CCATATCGTC
switch fluorescence ratio: 1.07

CGTTTATGGA
switch fluorescence ratio: 1

CCGGGGTGTC
switch fluorescence ratio: 1.17

GATGGCTCGG
switch fluorescence ratio: 1.01

CAGGAAACGC
switch fluorescence ratio: 1.09

CGCCATGGCT
switch fluorescence ratio: 1.01

AGTGAGTAAG
switch fluorescence ratio: 0.964

CCAGGGATGA
switch fluorescence ratio: 1.01

CGTAAAGTAT
switch fluorescence ratio: 1.01

GCTTTCCCCA
switch fluorescence ratio: 1.08

TGTCTGCTG
switch fluorescence ratio: 1.06

GGTGCACCTT
switch fluorescence ratio: 0.996

TCGATGCGGC
switch fluorescence ratio: 1.21

TTATGGTCCT
switch fluorescence ratio: 1.05

CGCCCGTCAT
switch fluorescence ratio: 1.05

GCGGACAGTG
switch fluorescence ratio: 0.988

AAATGTACTG
switch fluorescence ratio: 0.989

ATCCGTTATT
switch fluorescence ratio: 1.01

AGTCGCTCT
switch fluorescence ratio: 0.982

TAAGTTGCAA
switch fluorescence ratio: 0.952

GTGTATTGCG
switch fluorescence ratio: 1.03

GGGAGGAGTC
switch fluorescence ratio: 0.958

AGAAAGAGTA
switch fluorescence ratio: 1.01

CGGTTCGATA
switch fluorescence ratio: 1.06

TCCTGCGCCC
switch fluorescence ratio: 3.91

TGGTGAGCCG
switch fluorescence ratio: 1.01

TGAGTGGTTG
switch fluorescence ratio: 1.02

TTGCCCTCGC
switch fluorescence ratio: 1

CTTTGTTCCA
switch fluorescence ratio: 0.98

CGAGGGCTAT
switch fluorescence ratio: 1.15

AGGACGTGGA
switch fluorescence ratio: 1.03

ATCACTCTAA
switch fluorescence ratio: 1.08

TATTATCTAT
switch fluorescence ratio: 1.03

GCGCCATTTT
switch fluorescence ratio: 1.01

ATAACGCGCT
switch fluorescence ratio: 1

TCGTTGAGAA
switch fluorescence ratio: 1

AGAGGGGAAC
switch fluorescence ratio: 1.07

AGCGCCCAGT
switch fluorescence ratio: 1.12
